# According to PubChem BioAssay AID504706 (National Center for Advancing Translational Sciences (NCATS), 2011):
# Out of some 320,000 compounds screened, about 200 (0.062%) were called active. Inconclusive means that the source gave no clear call. Such entries were picked first, then a sample of the others. Calls follow the shape of the dose curve; as a rule, active = well fitted activation curve with a large enough effect; inconclusive = small, poorly fitted or top-dose-only effect; inactive = no such curve, though single readings can be large or run the other way. Potencies of inconclusive entries are left out as doubtful fits.
# Test: qHTS assay for re-activators of p53 using a Luc reporter; also: nearly all actives have a fitted effect of over 45% in size; as to activity change, positive = activation: % of control where 0% means no effect
# Conditions: H1299 p53-A138V BP100-luciferase reporter, luminescence, 24 h; series mostly up to 92.2 µM; activity change, positive = activation: at the top concentration
# How it was run: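 H1299 (p53-null), stable ts p53-A138V + BP100-Luc; 1000 cells/well, Opti-MEM/10% FBS; cpd 4 pt, 1:5; 24 h, 37 deg C, 5% CO2; detection reagent 10 min RT; luminescence.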
# Potency is read from the fitted curve at half-maximal effect; tags tell the direction and shape of the fitted curve.
Structure (SMILES),Potency,"activity change, positive = activation"
COc1ccc(Nc2nc(C)c(-c3ccccc3)s2)cc1,"inconclusive [activator, partial curve, poor fit]",
CC/C(=N\NC(=O)c1cc(C2CC2)[nH]n1)c1ccccc1,"inconclusive [activator, partial curve, poor fit]",
CC(=O)c1cccc(OCc2cc(C(=O)N3CCSCC3)no2)c1,"inconclusive [activator, full curve, poor fit]",
CCN1CCCC1CN(Cc1cc2ccc(C)cc2[nH]c1=O)C(=S)Nc1ccc(F)cc1 (stereo not drawn),,inactive: 0.788%
COc1cc2c(cc1OC)C(c1ccc(-c3ccccc3Cl)o1)=NCC2,,inactive: 13.5%
O=C(Nc1ccccc1)C1CCN(c2nccs2)CC1,"inconclusive [activator, single point]",
O=C(Oc1ccc(Cl)c2cccnc12)N1CCCCC1,"inconclusive [activator, single point]",
O=C(Nc1ccccc1N1CCCCC1)c1ccc([N+](=O)[O-])o1,"inconclusive [activator, partial curve, poor fit]",
O=C1c2ccccc2NC(c2ccccc2Cl)N1N=C1CCCCCC1 (stereo not drawn),"inconclusive [activator, partial curve, poor fit]",
CCOC(=O)c1ccc2[nH]c3ccccc3c2c1,"inconclusive [activator, partial curve, poor fit]",
COc1ccc(NC(=O)Nc2ccc(N(C)C)cc2)cc1,,inactive: 17.3%
Cc1nc(=O)c(-c2ccccc2)c(C)n1-c1cccc(C(=O)O)c1,"inconclusive [activator, single point]",
O=C(CSc1nnc(-c2cccc(Cl)c2)o1)Nc1ccc2c(c1)OCCO2,"inconclusive [activator, full curve, poor fit]",
COc1ccc(/C=N/Nc2nc(C(=O)O)cs2)cc1,"inconclusive [activator, single point]",
O=C(Nc1cccc(F)c1)c1ccc(-c2ccccc2Cl)o1,"inconclusive [activator, partial curve, poor fit]",
CC1CCN(C(=O)c2[nH]cnc2C(=O)N[C@@H](CCCCNC(=O)OC(C)(C)C)C(=O)OC(C)(C)C)CC1,,inactive: -7.67%
COc1ccc(OC)c(NC(=O)c2cnc3n(c2=O)CCS3)c1,"inconclusive [activator, partial curve, poor fit]",
O=C(Nc1ccccc1)Nc1ccc(S(=O)(=O)N2CCCCC2)cc1,"inconclusive [activator, single point]",
